Screen size: about 48,000 compounds; about 450 (0.94%) were called active. About 19% were inconclusive and are not listed. Calls come from the whole dose curve; as a rule, active = well fitted inhibition curve with a large enough effect; inconclusive = small, poorly fitted or top-dose-only effect; inactive = no such curve, though single readings can be large or run the other way. The list shows a part of the results.
Test: Primary qHTS for Identification of Small Molecule Inhibitors of Huntingtin Promoter Activity; note: nearly all actives have a fitted effect of over 50% in size
Settings: HEK293 HTT promoter firefly luciferase reporter (activity 0% = vehicle and -100% = no light), 24 h; series mostly up to 57.5 µM; activity change, negative = inhibition: at the top concentration
Outline: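 Firefly luciferase readout (Dual-Glo, 10 min RT) after 24 h, 37 °C compound exposure (final up to 57.5 uM) of HEK293 reporter cells cultured 24 h beforehand; PTC124 at 50 uM final as control inhibitor; activity scaled vehicle 0%, zero RLU -100%.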

Activity change, negative = inhibition, inactive:
O=C(NCCc1ccccc1)c1ccc(Cn2c(=O)c3cccn3c3cccnc32)cc1 -9.3%, COc1ccc(OC)c(CNC(=O)c2ccc(Sc3ccc(Cl)cc3)c(NC(C)=O)c2)c1 -28.2%, Cc1ccc(NC(=O)Cn2c(=O)n(CCCC(=O)NCc3ccc4c(c3)OCO4)c(=O)c3ccccc32)cc1 -8.79%, CCOc1cc(C2C(C(=O)Nc3ccccc3)=C(C)Nc3ncnn32)cc(Br)c1O (stereo not drawn) -6.22%, Cc1cc2c(cc1S(=O)(=O)N(CCO)Cc1ccccc1)OCC(=O)N2 8.29%, O=C(NC(Cc1cc(=O)[nH]c2ccccc12)C(=O)O)c1ccc(Cl)cc1 (stereo not drawn), CCc1cccc(CC)c1N(COC)C(=O)Cn1c(CC)nc2ccccc21 18.5%, Cc1ccc(C)c(NC(=O)CCS(=O)(=O)c2cccc3nsnc23)c1 -15.5%, Cc1ccc(NC(=O)Cn2c(CCC(=O)O)ccc2-c2cccs2)cc1Cl -20.6%, COC(=O)c1cccc(NC(=O)N(C)CCc2c(C)nn(C)c2C)c1 0%, C[N+](C)(C)CCOC(N)=O 1.81%, CCCCn1cc(S(=O)(=O)c2ccc(OCC)cc2)c(=O)c2cc(OC)c(OC)cc21 -21.6%, CCc1ccc(-n2nc3ccc(NC(=O)c4cc(Cl)c(OC)c(Cl)c4)cc3n2)cc1 2.8%, CCOc1ccc(CNC(=O)Cn2nc(C)n3cccc3c2=O)cc1 8.55%, Cc1ccc(CNC(=O)Cn2c(=O)n(Cc3ccccc3)c(=O)c3c2c2cc(C)ccc2n3C)cc1 -9%, CCOc1ccc(N2CC(C)Cn3c2nc2c3c(=O)n(CC(=O)O)c(=O)n2C)cc1 (stereo not drawn) 2.81%, COc1cc(N2C(=O)CSC23C(=O)N(C)c2ccccc23)cc(OC)c1OC (stereo not drawn) -5.42%, COCCN1Cc2cccc(C(=O)Nc3ccc(C)c(F)c3)c2C1=O -24.6%, Cc1cc(C)cc(NC(=O)C(=O)NCC(c2ccc3c(c2)OCO3)N2CCOCC2)c1 (stereo not drawn) -2.08%, COc1ccc(Nc2nc3c(S(=O)(=O)c4ccccc4)nnn3c3ccc(Cl)cc23)c(OC)c1 -3.94%, Fc1ccc(-c2cc(-c3nc(-c4ccccc4)no3)[nH]n2)cc1 26.6%, CC(C)c1ccc(NC(=O)c2cn(C3CCCCC3)c(=O)c3c2c2ccccc2n3C)cc1 -6.5%, CC(C)(C)NC[C@H](O)COc1cccc2c1CCCC2=O -4.44%, Cc1ccccc1NC(=O)N1CCc2cc(S(=O)(=O)N3CCC(C)CC3)ccc21 -10.8%, Cc1ccccc1CNC(=O)c1cccc(NC(=O)c2nsc3ccccc23)c1 2.89%, COc1ccc(-c2nc(C)c(CCNC(=O)c3ccc(F)c(F)c3)s2)cc1 -16.7%, COc1ccccc1C1=NS(=O)(=O)N(C)C(C(=O)Nc2cc(OC)c(OC)c(OC)c2)=C1 2.06%, CC(C)Cn1cc(NC(=O)NCc2ccccc2)c2ccccc2c1=O -9.81%, Cc1ccc2c(c1)c1c(c(=O)n(-c3cccc(Cl)c3)c(=O)n1CC(=O)c1ccc(Cl)cc1)n2C -4.25%, CCCCn1c(=N)c(S(=O)(=O)c2ccccc2)cc2c(=O)n3cccc(C)c3nc21 -1.44%, Cc1c(CC(=O)N2CCCCC2)c(=O)oc2cc3occ(C(C)(C)C)c3cc12 -4.14%, COc1ccc(-c2cn3cccnc3n2)cc1NC(=O)COc1ccccc1 -1.07%, COCCNc1ncnc2c1cnn2-c1cc(Cl)ccc1C -21.3%, Cc1cc(C)c2c(n1)SCC(=O)N2CC(=O)Nc1ccc(C)c(C)c1 -23%, CN1CCN(C(c2ccc(Cl)cc2Cl)c2sc3nc(-c4ccco4)nn3c2O)CC1 (stereo not drawn) -8.85%, Cn1nc(C(=O)NCc2cccc(Cl)c2)c2c1-c1ccccc1SC2 -9.72%, CCC(=O)N1c2ccccc2CC1C(=O)NCCc1ccccc1Cl (stereo not drawn) -11.4%, Cc1ccc(S(=O)(=O)C2(C(=O)Nc3ccc(C)c(Cl)c3)CC2)cc1 -0.484%, Cc1ccc(OCC(=O)Nc2ccc(OCc3cc(=O)n4ccsc4n3)cc2)cc1 -4.95%, Cc1ccc(CNC(=O)CCS(=O)(=O)c2cc3c(cc2Cl)NC(=O)CO3)cc1 -1.56%, COc1ccc(N2CCN(CC(O)COc3ccc(C)cc3C)CC2)cc1 (stereo not drawn) -20.1%, CC(C)(C)C(=O)NC1(C(F)(F)F)NC(=O)N(c2ccc(F)cc2)C1=O (stereo not drawn) -16.1%, COc1ccc(N2CCN(c3ncnc4c3cnn4-c3ccc(C)c(Cl)c3)CC2)cc1 -9.46%, Cc1ccc(Cl)cc1N1CCN(C(=O)CN2C(=O)COc3ccc(S(=O)(=O)N4CCC(C)CC4)cc32)CC1 -12.9%, COc1ccc(CNC(=O)c2ccc(-c3nc(CSc4ccc(C)cc4)c(C)o3)cc2)cc1OC -25.5%, Cc1nn(C(=O)c2ccccc2)c(C)c1S(=O)(=O)N1CCOCC1 -7.97%, CCC(=O)N1CCc2cc(S(=O)(=O)NC(C(=O)NCc3ccccc3Cl)C(C)C)ccc21 (stereo not drawn) -5.71%, Cc1c(C(=O)NCc2ccccc2Cl)sc2nc(-c3ccc(F)cc3)cn12 -22.6%, CCOc1ccccc1CNS(=O)(=O)c1ccc2c(c1)C(C)(C)C(=O)N2C -29.7%, CNc1nc(Nc2ccc(C(=O)N3CCOCC3)cc2OC)ncc1Cl -4.45%, Cn1c(=O)oc2cc(S(=O)(=O)N3CCC(C(=O)NCc4ccc(F)cc4)CC3)ccc21 -14.1%, COc1ccc(Nc2nc3cc(Cl)c(Cl)cc3n3cnnc23)cc1Cl -1.26%, CCOC(=O)C1=C(C)NC(C)=C(C(=O)OC)C1c1cccc(Cl)c1Cl (stereo not drawn) -9.57%, O=C(Nc1nnc(S(=O)(=O)N2CCCC2)s1)c1ccccc1Br -16.5%, Cc1ccccc1Cn1nnc2c(=O)[nH]c(C3CCCN(C(=O)c4ccc(F)cc4)C3)nc21 (stereo not drawn) -16.7%, CCOC(=O)c1ccc(NC(=O)CSc2nnc(CNC(=O)c3ccc(OC)cc3)n2CC)cc1 -3.71%, COc1ccc(NC(=O)CC2C(=O)N(c3ccc(C)cc3)C(=O)N2Cc2ccc3c(c2)OCO3)cc1 (stereo not drawn) -16.2%, COc1ccc(N2CCN(S(=O)(=O)c3ccc4c(c3)CCCN4C(C)=O)CC2)cc1 -16.8%, CC1CCN(CCCNC(=O)c2cn(C)c3ccc(S(=O)(=O)N(C)C4CCCCC4)cc3c2=O)CC1 -4.01% [at 11.5 µM], COc1cc2c(cc1OC)C(COc1ccc(C(C)C)cc1)N(C(=O)c1ccc(S(=O)(=O)N3CCCC3)cc1)CC2 (stereo not drawn) -61.1%, Cc1ccc2c(c1)N(C(=O)CCC(=O)NCc1cccs1)CCO2 -18.1%, Cc1ccc(C)c(CN2C(=O)c3ccccc3S(=O)c3ccc(C(=O)N4CCN(c5ccccc5F)CC4)cc32)c1 (stereo not drawn) -16.1%, COC(=O)c1cc(NC(=O)[C@H](CCS(C)(=O)=O)N2Cc3ccccc3C2=O)cc(C(=O)OC)c1 -17.3%, CCc1ccc(-c2nc3cc(NC(=O)c4cc5ccccc5cc4OC)ccc3o2)cc1 -22%, COc1ccc(Br)c(C(=O)Nc2cc3c(cc2N2CCCCC2)n(C)c(=O)c(=O)n3C)c1 -15.4%, CCc1cc(C(=O)NC(C)c2ccccc2)no1 (stereo not drawn) -8.47%, COc1cc2c(cc1OC)C(COc1ccc(F)cc1)N(C(=O)c1ccc(S(=O)(=O)N3CCCC3)cc1)CC2 (stereo not drawn) -16%, O=C(CCCn1c(=O)c2ccccc2n(Cc2ccc(F)cc2Cl)c1=O)NCCc1ccc(Cl)cc1 -2.57%, COC(=O)c1ccccc1NC(=O)c1ccc2nc(Cc3ccccc3)oc2c1 6.41%, CC(=O)Nc1ccc(NC(=O)c2ccc(COc3ccc(Cl)cc3Cl)o2)cc1 -17.1%, Cc1cccc(NC(=O)c2c(C)cc(C)nc2SCC(=O)Nc2c(C)cc(C)cc2C)c1 -26.1%, CCOc1ccc(-c2cc(-c3nc(-c4cc(OC)c(OC)c(OC)c4)no3)[nH]n2)cc1Cl -16.5%, Cc1ccc(-n2nc(CO)c(C(=O)NCc3cccs3)n2)cc1C -15.2%, COc1ccc(C)cc1NC(=O)C1CCN(S(=O)(=O)c2ccc3[nH]c4c(c3c2)CCCCC4)CC1 -26.6%, Nc1cc(=O)nc(SCC(=O)Nc2ccc(F)cc2)n1-c1ccccc1Cl -31.4% [at 11.5 µM], O=C(COc1ccc([N+](=O)[O-])cc1)NCC1(N2CCOCC2)CCCCC1 -15.3%, Oc1c(C(c2ccccc2F)N2CCCCC2)sc2nc(-c3ccco3)nn12 (stereo not drawn) 14.2%, CC(=O)c1cccc(NC(=O)CSc2nc(=O)n(Cc3cccnc3)c3c2CCC3)c1 -24.5%, CC(C)CC(=O)Nc1ccc(S(=O)(=O)Nc2cc3c(cc2N2CCOCC2)n(C)c(=O)c(=O)n3C)cc1 -11.1%, Cc1ccc(NC(=O)c2cn3c4c(ccc(Cl)c4c2=O)OC(C)C3)c(C)c1 (stereo not drawn) -10.5%, CCCCc1nc2ccccc2n2c(-c3ccc(OC)cc3)c3c(=O)n(C)c(=O)n(C)c3c12 -7.69%, Cc1c(C(=O)N2CCC(C)CC2)c(S(=O)(=O)NCc2ccc(Br)cc2)c(C)n1C -22.5%, COc1ccc(-n2ncc(C(=O)N3CCN(c4ncccn4)CC3)c2C2CCN(C(=O)OC(C)(C)C)CC2)cc1 1.14%, Cc1nc2sccn2c(=O)c1CCN1CCC(=C(c2ccc(F)cc2)c2ccc(F)cc2)CC1 -1.26%, Cc1ccccc1Nc1c(-c2ccc(Cl)s2)nc2c(C)cccn12 2.47%, CC(C)(C)OC(=O)N1CCC(c2c(C(=O)NCCCN3CCc4ccccc4C3)cnn2-c2ccccc2)CC1 -7.85%, CCOc1ccccc1NC(=O)Cn1c(=O)n(CCCC(=O)NCCc2ccc(C)cc2)c(=O)c2ccccc21 -5.46%, COc1ccc(-c2c(C)c3cc(OC(=O)N4CCOCC4)ccc3oc2=O)cc1 -24.4%, C[C@H](CCC(=O)O)[C@H]1CC[C@H]2[C@@H]3C(=O)C[C@@H]4CC(=O)CC[C@]4(C)[C@H]3CC(=O)[C@]12C 5.69%, O=C(Cn1cc(SCc2ccccc2)c2ccccc21)N1CCCCC1 -3.62%, COc1ccc(-c2nc(C)c(CCNC(=O)C(=O)Nc3c(C)cccc3C)s2)cc1OC 0.854%, CCc1ccc(CNC(=O)CN(c2ccc(C)cc2)S(=O)(=O)N(C)C)cc1 -18.8%, COc1ccc(OC)c(CCNC(=O)C2CCN(c3ncnc4c3nc3n4CCCCC3)CC2)c1 -4.7%

Reference: PubChem BioAssay AID1508623 (National Center for Advancing Translational Sciences (NCATS), 2021)
